In PubChem BioAssay AID686979 (National Center for Advancing Translational Sciences (NCATS), 2013):
“And” between values parts separate entries of the source, which are not always exact repeats. Equal values may be shown once. Out of some 420,000 compounds screened, about 50,000 (12%) were called active. This list was built around the results that the source calls inconclusive (neither active nor inactive); the mix of calls is not that of the screen. Calls come from the whole dose curve; as a rule, active = well fitted inhibition curve with a large enough effect; inconclusive = small, poorly fitted or top-dose-only effect; inactive = flat fitted curve, though single readings scatter. Where the call is inconclusive, the potency comes from a doubtful curve fit.

Experiment: qHTS for Inhibitors of human tyrosyl-DNA phosphodiesterase 1 (TDP1): qHTS in cells in presence of CPT; note: nearly all actives have a fitted effect of over 55% in size
Conditions: chicken DT40 Tdp1-/-;hTDP1 cells + 20 nM CPT, ATP luminescence, 48 h; activity change, negative = growth inhibition: at 46.2 µM (top of the series) unless noted
Procedure, shortened: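 Chicken DT40 Tdp1-/- cells stably complemented with human TDP1 were seeded at 400 cells/well in medium containing 20 nM camptothecin, exposed to pin-transferred compounds, and grown at 37 °C for at least 48 hr. Viability was read as ATP luminescence.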
% is set by controls: 0 for no effect and ±100 for the full control effect; potency is the fitted concentration of half-maximal effect; tags give direction and shape of the fitted curve.

SMILES	activity change, negative = growth inhibition	Potency
COc1ccccc1CNC(=O)CCC(=O)N1Cc2cccc(OC)c2Oc2ncccc21	inactive: 7.19%	
Cc1nc(SCC(=O)NC(=O)NCCC(C)C)c2c(-c3cccs3)csc2n1		inconclusive: 16.4 µM [inhibitor, single point]
COc1ccc(-c2noc(N(c3cccc(Cl)c3)c3nc(-c4ccc(OC)c(OC)c4)no3)n2)cc1OC	inactive: -4.12%	
Cn1nc(-c2ccccc2F)c2cc(C(=O)NCCc3ccc(Cl)cc3)sc21		inconclusive: 14.6 µM [inhibitor, single point]
CCCc1ccc(S(=O)(=O)NCCc2ccncc2)cc1		active: 13 µM
CC(=O)/C(=C/c1ccccc1)C(=O)Nc1ccccc1C		inconclusive: 16.4 µM [inhibitor, single point]
COc1ccc(-c2ncccc2OC(=O)C23CC4CC(CC(C4)C2)C3)cc1		active: 18.4 µM
COc1ccc(NC(=O)CSc2nc(N3CCCCC3)nc(N3CCCCC3)n2)cc1		inconclusive: 5.17 µM [inhibitor, single point]
Brc1ccc(CNc2ccc3ncccc3c2)cc1		active: 20.6 µM
Cc1ccccc1NC(=O)c1ccc([N+](=O)[O-])o1		inconclusive: 25.9 µM [inhibitor, single point]
CCOC(=O)c1cn(Cc2cccc(Cl)c2)c2cc(C)nn2c1=O		inconclusive: 20.6 µM [inhibitor, partial curve]
COc1ccccc1NC(=S)N1CC(C)(C)C1=O	inactive: -3.07%	
CCOC(=O)CC1(NC(=O)C2CCC(=O)N(Cc3ccccc3F)C2)CCCCC1 (stereo not given)		inconclusive: 25.9 µM [inhibitor, single point]
Cc1ccc(S(=O)(=O)Cc2ccc(C(=O)NCCc3ccc(Cl)cc3)o2)cc1		active: 16.4 µM
COC(=O)C1CCN(S(=O)(=O)Cc2ccccc2Cl)CC1	inactive: -1.9%	
Cc1ccc(-c2nc(C=Nc3ccc(O)cc3)c(O)o2)cc1		active: 7.31 µM
CC(=O)Nc1nc2n(n1)C(c1ccc(F)cc1)C=C(c1ccccc1)N2 (stereo not given)		inconclusive: 25.1 µM [inhibitor, single point]
O=[N+]([O-])c1cccnc1N/N=C/c1ccccc1O		inconclusive: 25.9 µM [inhibitor, single point]
Brc1cccc(-c2nnc(CN3CCN(c4ccccn4)CC3)o2)c1	inactive: -2.69%	
CCOC(=O)c1cc(C)n(CC2CCC(C(=O)Nc3cccc(C)c3)CC2)c1C (stereo not given)		active: 18.4 µM
Cc1cccc(-n2cc(-c3ccccc3)c3c(NC4CCCC4)ncnc32)c1		inconclusive: 29.1 µM [inhibitor, single point]
C=Cc1ccc(Cn2nc(-c3ccc(C)cc3)ccc2=O)cc1		inconclusive: 16.4 µM [inhibitor, single point] and inconclusive: 18.4 µM [inhibitor, single point]
Cc1cc(OCc2nn[nH]n2)c2c(C)c(Cc3ccccc3)c(=O)oc2c1	inactive: 0.757%	
C#CC[N+](C)(C)C(C#Cc1ccccc1)CC=C (stereo not given)		active: 11.6 µM

SMILES	activity change, negative = growth inhibition	Potency
Cc1cc(NC(=O)CSc2nc(C3CCCCC3)nc3ccccc23)no1		inconclusive: 29.1 µM [inhibitor, single point]
COc1ccc(OC)c(NC(=O)CSc2n[nH]c(-c3cccnc3)n2)c1	inactive: -14.3%	
Cc1cc(C)cc(C(O)c2ncc(-c3cccc(C(F)(F)F)c3)[nH]2)c1 (stereo not given)		inconclusive: 29.1 µM [inhibitor, single point]
COC(=O)[C@]12CCCCC=C1N(Cc1ccccc1)C(=O)[C@H](CC(=O)NCCC(C)C)C2		inconclusive: 29.1 µM [inhibitor, single point]
CCOC(=O)c1c(NC(=O)c2ccc(S(=O)(=O)N3CCC(C)CC3)cc2)sc2c1CCN(CC)C2		active: 13 µM
CC(C)CCNC(=O)C1CC(c2ccccc2[N+](=O)[O-])=NO1 (stereo not given)		inconclusive: 20.6 µM [inhibitor, partial curve]
COc1ccc(OC)c(C(c2nnnn2CCc2ccccc2)N2CCN(c3ccccc3)CC2)c1 (stereo not given)		inconclusive: 35.5 µM [inhibitor, single point]
CSc1ccc(C(=O)C2CCCN(C(=O)c3ccsc3)C2)cc1 (stereo not given)		inconclusive: 25.9 µM [inhibitor, single point]
CC(C)NC(=O)COC(=O)c1ccccc1CSC1=NCCS1	inactive: -12.6%	
OC(c1cc(F)cc(Cl)c1)c1ncc(-c2ccccc2Cl)[nH]1 (stereo not given)		inconclusive: 29.1 µM [inhibitor, single point]
CC1CCC(C(C)C)C(OC(=O)CSc2nccc(=O)[nH]2)C1 (stereo not given)		inconclusive: 2.06 µM [inhibitor, partial curve, poor fit]
COC(=O)Nc1nnc(-c2ccncc2)s1		inconclusive: 23.1 µM [inhibitor, single point]
Cc1ccc(S(=O)(=O)N(C)c2ccc(C(=O)Nc3ccc(C)cn3)cc2)cc1		inconclusive: 25.9 µM [inhibitor, single point]
O=C(NC1CCCCC1)c1ccc(CSc2nc3cccnc3n2Cc2ccc(F)cc2)cc1		inconclusive: 4.61 µM [inhibitor, single point]
CCCCNc1c(-c2ccc(SC(C)CC)cc2)nc2ccc(Cl)cn12 (stereo not given)		inconclusive: 18.4 µM [inhibitor, partial curve]
Cc1ccc(C)c(NC(=O)CCCCCN2C(=O)[C@@H]3Cc4ccccc4CN3C2=O)c1		inconclusive: 23.1 µM [inhibitor, single point]
COc1cccc(NC(=O)CN(C)C(=O)c2ccc(N3CCOCC3)c([N+](=O)[O-])c2)c1	inactive: -1.61%	
C[C@H](NC(=O)c1nc[nH]c1C(=O)NCC(=O)OC(C)(C)C)C(=O)OCc1ccccc1	inactive: -15.4%	
COCCCNC(=O)c1cc2c(-c3ccc(Cl)cc3)nn(C)c2s1		inconclusive: 29.1 µM [inhibitor, single point]
O=C1c2[nH]nc(-c3ccccc3O)c2C(c2ccccc2F)N1Cc1cccnc1 (stereo not given)		inconclusive: 6.51 µM [inhibitor, partial curve]
Cc1cccc(-n2c(Cc3ccccc3)nnc2SCc2nc(-c3cccs3)no2)c1		inconclusive: 23.1 µM [inhibitor, single point]
Cc1cc(C)cc(NC(=S)N(Cc2ccc(Cl)cc2)Cc2ccc(C(=O)O)cc2)c1	inactive: -27.3%	
COc1ccc(C(O)P(=O)(OCc2ccccc2)c2ccc(N(C)C)cc2)cc1 (stereo not given)		inconclusive: 29.1 µM [inhibitor, single point]
COc1ccc(C2(CNC(C)=O)CCOCC2)cc1OC	inactive: 1.74%	

SMILES	activity change, negative = growth inhibition	Potency
CC(C)(C)c1ccc(OCC(O)CN2CCN(c3ccccn3)CC2)cc1 (stereo not given)		inconclusive: 23.1 µM [inhibitor, single point]
N#CCSc1ccccc1NC(=O)COC(=O)C1CCN(C(=O)c2ccc(Cl)cc2)CC1	inactive: 1.51%	
CN(Cc1ccccc1)Cc1cc(=O)oc2ccc3ccccc3c12		inconclusive: 25.9 µM [inhibitor, single point]
Cc1nc(NC(=O)c2cc3ccccc3o2)ccc1Br		inconclusive: 29.1 µM [inhibitor, single point]
O=C(NCc1ccco1)C1CCN(S(=O)(=O)Cc2ccccc2)CC1	inactive: -7.52%	
Cc1cccc(Nc2nnc(-c3ccc(C)c(S(=O)(=O)NCC4CCCO4)c3)c3ccccc23)c1 (stereo not given)		active: 23.1 µM
COC(=O)c1sc(NC(=O)COc2ccc(OC)cc2)nc1C	inconclusive: -30.9% [inhibitor]	
CCOC(=O)c1ccc(N2C(=O)c3n[nH]c(-c4ccco4)c3C2c2ccc(O)c(OCC)c2)cc1 (stereo not given)		active: 16.4 µM
COc1ccc(NS(=O)(=O)c2cccc(C(=O)N/N=C/c3cn(-c4ccccc4)nc3-c3ccc(OC)cc3)c2)cc1		inconclusive: 29.1 µM [inhibitor, single point]
Cc1nc(N)sc1N=Nc1ccc(F)cc1		inconclusive: 3.26 µM [inhibitor, full curve, poor fit]
COC(=O)c1c(C(=O)OC)c2ccccn2c1C(=O)c1ccccc1		inconclusive: 8.2 µM [inhibitor, partial curve, poor fit]
Oc1ccc(N=Nc2ccc3c(c2)OCCO3)c2cccnc12		active: 1.3 µM
O=S(=O)(NCc1csc(-c2cccs2)n1)c1ccc(Cl)cc1		inconclusive: 29.1 µM [inhibitor, single point]
C=CCn1c(C)cc(C(=O)COc2ccc(C)nc2[N+](=O)[O-])c1C		inconclusive: 18.4 µM [inhibitor, single point]
CC(=O)c1ccc(NC(=O)c2cc(Cl)nc3ccccc23)cc1		inconclusive: 23.1 µM [inhibitor, single point]
O=C(NCCSCc1c(F)cccc1Cl)c1ccc(CN2CCOCC2)cc1		inconclusive: 16.4 µM [inhibitor, single point]
COc1ccc(-c2cc(=O)c3ccc(O)cc3o2)cc1		inconclusive: 32.6 µM [inhibitor, single point]
CCN(CC(=O)NCc1ccc(F)cc1)CC(=O)Nc1ccc(S(=O)(=O)N2CCCC2)cc1	inactive: -1.25%	
COc1cccc(/C=N/NC(=O)c2[nH]c(C)c(C(=O)N/N=C/c3cccc(OC)c3)c2C)c1		inconclusive: 20.6 µM [inhibitor, single point]
CCCCNc1nc(NCc2ccccc2)nc2ccccc12		active: 20.6 µM
COc1cc(-c2nnc3sc(Cc4ccccc4)nn23)cc(OC)c1OC		active: 20.6 µM
COc1ccc(C(C)(C)C)cc1NC(=O)C1CC=CCC1C(=O)O (stereo not given)		inconclusive: 16.4 µM [inhibitor, partial curve]
